# Source: PubChem BioAssay AID1347165 (National Center for Advancing Translational Sciences (NCATS), 2019)
# In all, about 220,000 compounds went through this assay and about 5,700 (2.6%) were called active. Inconclusive means that the source gave no clear call. Such entries were picked first, then a sample of the others. The call rests on the fitted dose curve; in most records, active means well fitted inhibition curve with a large enough effect; inconclusive means small, poorly fitted or top-dose-only effect; inactive means no such curve, though single readings can be large or run the other way. Potencies of inconclusive entries are doubtful fits and often do not repeat.
# Biological target: Lysine-specific demethylase 5B (Homo sapiens) (UniProt Q9UGL1)
# Chain of UniProt Q9UGL1 (Q9UGL1 whole entry, looked up): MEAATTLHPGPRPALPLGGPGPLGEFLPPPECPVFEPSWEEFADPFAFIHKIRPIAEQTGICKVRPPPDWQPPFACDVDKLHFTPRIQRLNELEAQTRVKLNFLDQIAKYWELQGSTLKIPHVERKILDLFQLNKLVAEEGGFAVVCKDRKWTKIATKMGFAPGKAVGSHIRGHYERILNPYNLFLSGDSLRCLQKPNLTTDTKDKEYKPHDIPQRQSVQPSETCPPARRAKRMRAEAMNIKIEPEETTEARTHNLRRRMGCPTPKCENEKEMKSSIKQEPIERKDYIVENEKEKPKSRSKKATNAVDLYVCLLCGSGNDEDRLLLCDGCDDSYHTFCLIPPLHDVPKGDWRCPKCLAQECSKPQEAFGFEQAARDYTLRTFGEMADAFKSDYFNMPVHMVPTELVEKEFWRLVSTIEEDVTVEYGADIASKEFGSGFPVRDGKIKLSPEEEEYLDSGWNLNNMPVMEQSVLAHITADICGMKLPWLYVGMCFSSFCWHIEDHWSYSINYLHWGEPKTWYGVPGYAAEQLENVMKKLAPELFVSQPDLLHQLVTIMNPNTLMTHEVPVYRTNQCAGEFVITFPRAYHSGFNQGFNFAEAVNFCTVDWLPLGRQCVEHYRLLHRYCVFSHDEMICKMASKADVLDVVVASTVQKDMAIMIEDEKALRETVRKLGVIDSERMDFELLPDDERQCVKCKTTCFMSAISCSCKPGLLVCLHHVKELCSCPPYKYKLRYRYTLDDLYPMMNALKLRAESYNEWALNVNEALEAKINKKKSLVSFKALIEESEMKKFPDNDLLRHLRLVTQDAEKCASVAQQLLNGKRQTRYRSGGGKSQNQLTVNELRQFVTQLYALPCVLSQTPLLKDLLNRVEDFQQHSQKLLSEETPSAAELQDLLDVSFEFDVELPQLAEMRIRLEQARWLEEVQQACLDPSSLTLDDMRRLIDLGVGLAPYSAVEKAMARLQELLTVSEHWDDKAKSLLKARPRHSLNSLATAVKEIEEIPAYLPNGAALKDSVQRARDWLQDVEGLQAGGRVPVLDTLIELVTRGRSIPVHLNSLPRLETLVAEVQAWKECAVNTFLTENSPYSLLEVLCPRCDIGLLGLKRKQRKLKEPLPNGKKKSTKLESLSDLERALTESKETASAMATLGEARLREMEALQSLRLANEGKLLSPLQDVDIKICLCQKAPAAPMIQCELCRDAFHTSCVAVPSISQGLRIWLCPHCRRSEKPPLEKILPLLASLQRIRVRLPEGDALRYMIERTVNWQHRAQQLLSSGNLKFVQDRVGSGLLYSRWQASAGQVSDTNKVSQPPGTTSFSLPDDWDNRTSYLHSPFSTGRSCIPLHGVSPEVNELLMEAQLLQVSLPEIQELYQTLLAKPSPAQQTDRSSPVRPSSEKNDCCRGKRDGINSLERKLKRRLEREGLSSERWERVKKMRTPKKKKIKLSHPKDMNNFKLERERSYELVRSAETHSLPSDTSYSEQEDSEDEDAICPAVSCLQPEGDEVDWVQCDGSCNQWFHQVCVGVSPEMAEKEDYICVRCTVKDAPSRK
# Assay: Primary screen for KDM5B Histone Demethylases FDH-coupled qHTS; further: nearly all actives have a fitted effect of over 70% in size; on activity change, negative = inhibition: 0% is about no effect
# Details: FDH-coupled NADH fluorescence (FDH is formaldehyde dehydrogenase); activity change, negative = inhibition: at 57.7 µM (top of the series) unless noted
# Procedure, shortened: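 Compound dilutions met 200 nM (final) KDM5BΔAP for 10 min at room temperature before substrate addition. The substrate mix held 12.5 µM H3K4me3 with cofactors 25 µM α-ketoglutarate and 50 µM Fe²⁺. NADH signal gain over 30 min defined activity.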
# Potency means the concentration at half of the fitted maximal effect; tags describe the fitted curve by direction and shape.
Compound,Potency,"activity change, negative = inhibition"
O=C(Nc1ccccc1N1CCCCC1)c1ccc(-c2cc(Cl)ccc2Cl)o1,"inconclusive: 31.6 µM [inhibitor, partial curve, poor fit]",–
Cc1ccc(C(=O)NCC(C)C)cc1N,"inconclusive: 25.1 µM [inhibitor, partial curve, poor fit]",–
FC(F)(F)c1ccc(Cl)c(N/N=C/c2cccc(OCc3ccccc3)c2)c1,–,inactive: 14.2%
O=C(NCCNc1cccnc1)C1CCC(=O)N(C2CC2)C1 (stereo not given),"inconclusive: 20 µM [inhibitor, single point]",–
CC(C)n1c(N2CCCCC2)nc2c1c(=O)n(C)c(=O)n2C,–,inactive: 8.1%
CCc1nc2c(c(-c3ccc(Cl)cc3)n1)CN(Cc1ccc(OC(F)(F)F)cc1)CC2,–,inactive: -20.7%
COc1ccc(C2(C(=O)N3CC(CO)C4(CCNCC4)C3)CCCCC2)cc1 (stereo not given),"inconclusive: 3.16 µM [inhibitor, full curve]",–
CC(=O)Nc1ccc(S(=O)(=O)N2C[C@@H]3C[C@H](C2)c2c(-c4ccc(Cl)cc4)ccc(=O)n2C3)cc1,"inconclusive: 20 µM [inhibitor, partial curve, poor fit]",–
Cc1ccc(NC(=O)CN2C(=O)COc3ccc(S(=O)(=O)NC4CCCC4)cc32)cc1Cl,–,inconclusive: -32.2% [inhibitor]
Cc1ccc2c(CC(=O)N(Cc3cccs3)C3CC3)coc2c1C,–,inactive: -8.46%
CCN(Cc1ccccc1)C(=O)Cn1c(=O)n(-c2cccc(C)c2)c(=O)c2c1c1cc(C)ccc1n2C,–,inconclusive: -38.6% [inhibitor]
CCOC(=O)c1cc(NC(C)=O)cc(C(=O)OCC)c1,–,inactive: 21%
CCCCn1cc(S(=O)(=O)c2ccc(CC)cc2)c(=O)c2cc(OCC)ccc21,"inconclusive: 39.8 µM [inhibitor, single point]",–
CCOC(=O)C1CCN(C(=O)Cn2ncc3c4ccccc4n(Cc4ccc(F)cc4)c3c2=O)CC1,"inconclusive: 22.4 µM [inhibitor, single point]",–
Cc1cccc(NC(=O)c2nn(C)c(=O)c3ccccc23)c1,–,inactive: 10.6%
COc1ccc(-c2cnc3[nH]cc(CC(=O)N4CCCC4)c3c2)cc1,active: 35.5 µM,–
Cc1csc2nc(COc3ccc(NC(=O)COc4ccccc4)cc3)cc(=O)n12,"inconclusive: 35.5 µM [inhibitor, partial curve, poor fit]",–
Cc1ncoc1C(=O)N[C@@H]1CN(Cc2cccnc2)C[C@H]1CN(C)C,–,inactive: -3.28%
O=C(C(Sc1nc2ccccc2o1)c1ccccc1)N1CCCC1 (stereo not given),–,inactive: 13.1%
O=c1[nH]c(N2CCOCC2)nc2nccc(-c3ccccc3)c12,"inconclusive: 28.2 µM [inhibitor, partial curve, poor fit]",–
Cc1ccc2c(c1)N1C(=O)OC[C@@H]1CCN(C(=O)C1CCC1)C2,–,inactive: 0.699% [at 86.2 µM]
CCc1nc(SCC(=O)Nc2cccc(OC)c2)c2c3c(sc2n1)COC(C)(C)C3,–,inactive: 18.3%
Cn1cccc1CN1CCC2(CN[S+](=O)([O-])c3ccccc3N2)C1 (stereo not given),"inconclusive: 28.2 µM [inhibitor, single point]",–
CC(C)c1cc(N2C[C@H](O)[C@@H](N3CCCCC3)C2)n2nccc2n1,"inconclusive: 25.1 µM [inhibitor, single point]",–

Compound,Potency,"activity change, negative = inhibition"
c1ccc2sc(CCCCc3nc4ccccc4s3)nc2c1,–,inactive: -14%
CN(C)c1cccc(-c2cc3c(cn2)CN(Cc2ccncc2)CCN3)c1,"inconclusive: 31.6 µM [inhibitor, partial curve, poor fit]",–
Cc1ccc(Cl)cc1Nc1cc(Cl)c2nonc2c1[N+](=O)[O-],"inconclusive: 2 µM [inhibitor, full curve, poor fit]",–
CNC(=O)CCn1ncc2cc(OCc3ccccc3-c3cccnc3OC)ccc21,–,inactive: -17.2% [at 86.2 µM]
C=CCNc1oc(COc2ccccc2OC)nc1C#N,–,inactive: 15.7%
O=[N+]([O-])c1cccc2ccc(/C=C/c3ccccc3)nc12,–,inactive: 0.134%
Cc1nc(CNC(=O)c2ccccc2C)cs1,–,inactive: 16.1%
Cc1ccc(-c2cc(C(=O)OC(C)C(=O)NC(=O)NC3CCCC3)c3ccccc3n2)o1 (stereo not given),"inconclusive: 20 µM [inhibitor, partial curve, poor fit]",–
CC(=O)c1cccc(NC(=O)CCc2c(C)nc3c(c(C)nn3-c3ccccc3)c2C)c1,"inconclusive: 31.6 µM [inhibitor, partial curve, poor fit]",–
COc1cccc(CN2Cc3cc(NC(=O)c4cc(OC)cc(OC)c4)ccc3OCC2=O)c1,"inconclusive: 31.6 µM [inhibitor, single point]",–
COCCCNC(=O)CCC(=O)NCCCOC,–,inactive: -4.34%
COCCCNc1ncnc2c1CN(C1CCCNC1)C(=O)CN2C (stereo not given),"inconclusive: 56.2 µM [inhibitor, partial curve, poor fit]",–
COCC1CN(Cc2ccc(C(C)C)cc2)CC12CCNCC2 (stereo not given),"inconclusive: 15.8 µM [inhibitor, single point]",–
Cc1ccc(-c2nn(-c3cccc(F)c3)cc2CN2CCN(c3ccccn3)CC2)o1,"inconclusive: 39.8 µM [inhibitor, partial curve, poor fit]",–
O=C(Nc1ccc(F)cc1F)Nc1ccccc1C(=O)NCCN1CCNC1=O,–,inactive: 4.77%
Cc1cccc(NC(=O)CSc2nc3ccccc3nc2N2CCCCC2)c1C,"inconclusive: 1.41 µM [inhibitor, full curve, poor fit]",–
CCc1noc(C)c1C(=O)N[C@H](c1ccc2c(c1)CCO2)C1CC(O)C1 (stereo not given in full),–,inactive: -8.48%
Cc1nccc(-c2cccc(NC(=O)c3nccnc3N)c2)n1,"inconclusive: 39.8 µM [inhibitor, single point]",–
Cc1ccc(C#N)c(N2CC[C@@]3(O)CCN(S(=O)(=O)N(C)C)C[C@H]3C2)n1,active: 28.2 µM,–
CN(C)CCNC(=O)c1nc2nc(-c3ccccc3)c(-c3ccc(Cl)cc3)cc2n1C,active: 28.2 µM,–
COc1cccc(Cn2c(=O)n(CCc3ccccc3)c(=O)c3c2c2cc(OC)ccc2n3C)c1,"inconclusive: 17.8 µM [inhibitor, partial curve, poor fit]",–
FC(F)Oc1ccc(/C=N/n2c(Cc3ccc(Br)cc3)n[nH]c2=S)cc1,"inconclusive: 11.2 µM [inhibitor, partial curve, poor fit]",–
COc1ccc(NC(=O)c2c(NC(=O)c3ccncc3)sc3c2CCC(C(C)(C)C)C3)cc1 (stereo not given),"inconclusive: 8.91 µM [inhibitor, partial curve, poor fit]",–
Cc1ccc(Cl)cc1NC(=O)CSCc1cnn(-c2ccccc2)c1-n1cccc1,–,inactive: -19.3%

Compound,Potency,"activity change, negative = inhibition"
Cc1noc2c(N3CCNC(=O)C3)cc(-c3cccs3)nc12,–,inactive: -12.2% [at 86.2 µM]
COc1cccc(-c2noc(CC3CCN(C(=O)c4ccc(OC)cc4C)CC3)n2)c1,–,inactive: 9.63%
O=C(c1cccnc1)N1CCC(c2cc(-c3ccc(F)cc3)n[nH]2)CC1,"inconclusive: 15.8 µM [inhibitor, partial curve]",–
CN(C)C(=O)C(Sc1nnc(-c2ccncc2)n1-c1ccc(Cl)cc1)c1ccccc1 (stereo not given),–,inactive: 8.85%
COc1ccc(C(=O)Nc2ccccc2N2CCCCC2)cc1S(=O)(=O)NC(C)C,–,inactive: -10.5%
CCCC(=O)N1Cc2ccccc2CC2(CCCN(Cc3cccnc3)C2)C1 (stereo not given),–,inactive: 11.9% [at 115 µM]
CS(=O)(=O)Nc1cccc(CNC(=O)CCC2CCCCC2)c1,–,inactive: 20.3%
CCCc1cc(=O)oc2cc(OCc3ccc(C(=O)O)o3)ccc12,"inconclusive: 28.2 µM [inhibitor, partial curve, poor fit]",–
Cc1ccc(NC(=O)Nc2ccc(C)n(CC(=O)N3CCC(C)CC3)c2=O)cc1,"inconclusive: 31.6 µM [inhibitor, single point]",–
CN1CCN(C(=O)c2ccc3c(c2)N(Cc2ccc(Cl)cc2)C(=O)c2ccccc2S3(=O)=O)CC1,"inconclusive: 2.24 µM [inhibitor, full curve, poor fit]",–
COc1cc(OC)c2cc(C(=O)NCC(=O)Nc3ccc4c(c3)OCCO4)n(C)c2c1,"inconclusive: 28.2 µM [inhibitor, partial curve, poor fit]",–
Cc1ccccc1OCCn1c(CN(C)C(=O)c2ccco2)nc2ccccc21,–,inactive: 6.92%
CCN(CC)S(=O)(=O)c1cccc(C(=O)OCc2nc3ccccc3nc2C)c1,–,inactive: -5.85%
COc1ccc(CC(=O)NC2CCN(c3cc(-c4ccc(Cl)cc4)[nH]n3)C2)cc1OC (stereo not given),"inconclusive: 11.2 µM [inhibitor, partial curve]",–
CN(C)CCNc1oc(-c2cccc(Cl)c2)nc1C#N,"inconclusive: 1.78 µM [inhibitor, partial curve, poor fit]",–
CCN1C(=O)c2ccccc2Sc2ccc(NC(=O)c3cccc(C)c3)cc21,"inconclusive: 44.7 µM [inhibitor, single point]",–
CCCCNc1ncnc2sc3c(c12)CCN(CCC)C3,"inconclusive: 20 µM [inhibitor, partial curve, poor fit]",–
COc1cc(/C=C(/C#N)C(=O)c2c(Cl)cccc2Cl)cc(OC)c1O,"inconclusive: 10 µM [inhibitor, partial curve, poor fit]",–
Cc1ccc(NC(=O)Nc2cccs2)c(C)c1,"inconclusive: 25.1 µM [inhibitor, partial curve, poor fit]",–
O=C(Cn1c(=O)n(-c2ccccc2)c(=O)c2ccc(C(=O)NCc3ccc4c(c3)OCO4)cc21)Nc1ccc(F)c(Cl)c1,"inconclusive: 20 µM [inhibitor, partial curve, poor fit]",–
CCN(CC(=O)N1c2ccccc2SCC1c1ccccc1)Cc1nc2ccccc2c(=O)[nH]1 (stereo not given),–,inactive: 11.4%
CN(CCCNC(=O)c1cc2c(=O)n(C)c3ccccc3c2s1)Cc1ccccc1,"inconclusive: 25.1 µM [inhibitor, partial curve, poor fit]",–
